Assay results taken from PubChem BioAssay AID1768 (National Center for Advancing Translational Sciences (NCATS), 2009).
The whole screen tested about 270,000 compounds, of which about 620 (0.23%) were called active. This list was built around the results that the source calls inconclusive (neither active nor inactive); the mix of calls is not that of the screen. Calls follow the shape of the dose curve; as a rule, active = well fitted inhibition curve with a large enough effect in the polarisation, with a control signal flat (not every such curve was filed as active); inconclusive = small, poorly fitted or top-dose-only effect, or effect the other way, or a change in a side signal; inactive = no such curve, though single readings can be large or run the other way; the % refers to the polarisation. A potency beside an inconclusive call is a rough fit, not a confirmed value. “Side channel” marks fits to a control or component signal instead of the main read-out.

The compounds below were run against Menin (Homo sapiens) (UniProt O00255) (assay: qHTS Assay for Inhibitors Targeting the Menin-MLL Interaction in MLL Related Leukemias: Competition With Texas Red Labeled MLL-derived Mutant Peptide). Settings: fluorescence polarization; series mostly up to 61.6 µM.
Potency is read from the fitted curve at half-maximal effect; tags tell the direction and shape of the fitted curve or compound fluorescence and quenching.

UniProt O00255, sequence (O00255 whole entry, looked up): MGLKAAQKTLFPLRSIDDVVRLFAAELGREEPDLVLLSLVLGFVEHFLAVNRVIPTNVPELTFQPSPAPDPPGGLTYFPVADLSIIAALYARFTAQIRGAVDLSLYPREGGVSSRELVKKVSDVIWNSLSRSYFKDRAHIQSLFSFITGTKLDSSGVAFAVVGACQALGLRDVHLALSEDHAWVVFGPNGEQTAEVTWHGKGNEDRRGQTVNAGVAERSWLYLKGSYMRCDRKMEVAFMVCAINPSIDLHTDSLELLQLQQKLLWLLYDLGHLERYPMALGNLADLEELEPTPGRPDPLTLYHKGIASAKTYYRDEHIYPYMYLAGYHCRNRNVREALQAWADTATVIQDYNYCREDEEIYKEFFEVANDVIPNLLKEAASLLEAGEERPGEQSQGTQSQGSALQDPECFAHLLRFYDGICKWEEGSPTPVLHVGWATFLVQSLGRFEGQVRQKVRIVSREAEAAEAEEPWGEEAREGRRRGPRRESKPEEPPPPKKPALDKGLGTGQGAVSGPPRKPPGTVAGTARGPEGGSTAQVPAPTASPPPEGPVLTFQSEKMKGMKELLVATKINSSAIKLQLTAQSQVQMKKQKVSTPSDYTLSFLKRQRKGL

Row | SMILES | Potency
1 | CC(=O)c1ccc(NC(=S)NNC(=O)c2ccccc2[N+](=O)[O-])cc1 | inconclusive: 35.5 µM [quencher, side channel, single point]
2 | CN=c1scc(-c2ccccc2F)n1/N=C/c1ccc(O)c(O)c1O | inconclusive: 5.01 µM [quencher, side channel, partial curve]
3 | COc1ccc(-c2cc(C(=O)OCC(=O)Nc3ccc4c(c3)OCO4)c3ccccc3n2)cc1 | inconclusive: 3.55 µM [quencher, side channel, full curve]
4 | O=C(Oc1cc(=O)oc2ccccc12)c1ccco1 | inconclusive: 31.6 µM [quencher, side channel, partial curve]
5 | CCCN1Cc2cccc(C(=O)NC(CC(=O)OCC)c3ccc(OCC)c(OC)c3)c2C1=O (configuration not stated) | inconclusive: 11.2 µM [fluorescent, side channel, partial curve]
6 | C=C(C)c1cccc(C(C)(C)NC(=O)Nc2ccc(C)cn2)c1 | inconclusive: 7.94 µM [fluorescent, side channel, partial curve]
7 | CCOC(=O)CCc1c(C)c2ccc(OCC(=O)OC(C)C)cc2oc1=O | inactive
8 | O=C1CCC/C1=C/Nc1ccc(Cl)cc1 | inactive
9 | N#C/C(=C(/O)COC(=O)c1ccccc1O)c1nc2ccccc2s1 | inconclusive: 17.8 µM [quencher, side channel, partial curve]
10 | Cc1ccccc1N1C(=O)C(Oc2ccc(Cl)cc2)C1CNCCCOC(C)C (configuration not stated) | inconclusive: 39.8 µM [fluorescent, side channel, partial curve]
11 | FC(F)(F)c1nc(-c2cccs2)ncc1-c1nnnn1-c1ccc(Cl)cc1 | inactive
12 | CC(C)CN1C(=O)c2ccc(NC(=O)Cc3ccccc3)cc2C1=O | inconclusive: 8.91 µM [fluorescent, side channel, partial curve]
13 | Cc1ccc2c(n1)sc1c(-c3ccc(Br)cc3)c(C#N)c(N)nc12 | inconclusive: 31.6 µM [inhibitor, single point]
14 | O=[N+]([O-])c1cccc(C2Nc3cccc4cccc(c34)N2)c1 | inconclusive: 12.6 µM [quencher, side channel, partial curve]
15 | Nc1cc2sc(-c3ccc(C(=O)O)cc3)nc2cc1Cl | inactive
16 | CCCCCCCCCCOC(=O)Cn1c(COc2cccc(C)c2)[n+](C)c2ccccc21 | inconclusive: 11.2 µM [fluorescent, side channel, partial curve]
17 | O=C(Nc1ccc(F)cc1)OCCOc1ccc(Br)cc1 | inconclusive: 1 µM [inhibitor, full curve]
18 | O=C(NC(=S)NCCN1CCOCC1)c1ccccc1Cl | inactive
19 | COC(=O)CN1C(=S)N(c2ccc(Cl)cc2)C(=O)C1CC(=O)Nc1ccccc1 (configuration not stated) | inconclusive: 28.2 µM [quencher, side channel, single point]

Row | SMILES | Potency
20 | CNC(=S)Nc1cc2oc3ccccc3c2cc1OC | inconclusive: 25.1 µM [quencher, side channel, partial curve]
21 | N#Cc1cc([N+](=O)[O-])ccc1NC(=O)COC(=O)C12CC3CC(CC(C3)C1)C2 | inconclusive: 15.8 µM [quencher, side channel, partial curve]
22 | Cc1cccn2c(CN3CCCN(C=O)CC3)c(C(=O)N(C)CCc3ccccc3)nc12 | inconclusive: 10 µM [fluorescent, side channel, partial curve]
23 | COc1ccc(OCCSc2nc(C)c(Cc3ccccc3)c(=O)[nH]2)cc1 | inconclusive: 28.2 µM [fluorescent, side channel, single point]
24 | Fc1ccc(CNC(=S)Nc2cccc(Cl)c2)cc1 | inconclusive: 10 µM [quencher, side channel, partial curve]
25 | CNc1cc([N+](=O)[O-])ccc1N/C=C/C(=O)c1cccs1 | inconclusive: 25.1 µM [quencher, side channel, partial curve]
26 | CCNC(=O)C12CCC(C)(c3nc4cc(C)c(C)cc4nc31)C2(C)C (configuration not stated) | inconclusive: 7.94 µM [fluorescent, side channel, full curve]
27 | O=C(COc1ccccc1F)N1CCCc2ccccc21 | inconclusive: 35.5 µM [inhibitor, single point]
28 | CC(C)Sc1nc2c(c(=O)[nH]c(=O)n2C)n1Cc1ccc(Cl)cc1 | inconclusive: 28.2 µM [fluorescent, side channel, single point]
29 | COc1ccccc1/C=C/C=N/NC(=O)c1ccc(=O)n(C)c1 | inactive
30 | CC(C)CC(NC(=O)C(NC(=O)C(Cc1ccc(OCc2ccccc2)cc1)NC(=O)OC(C)(C)C)C(C)C)C(N)=O (configuration not stated) | inconclusive: 28.2 µM [fluorescent, side channel, single point]
31 | CCCCN(CCCC)CP(=O)(c1ccccc1)c1ccccc1 | inconclusive: 8.91 µM [fluorescent, side channel, partial curve]
32 | CO[C@@H]1COC(=O)CCC[C@@H](C)[C@H](OC)COC(=O)[C@H](Cc2ccccc2)NC(=O)C/C=C\[C@H]1C | inconclusive: 1.58 µM [inhibitor, partial curve]
33 | Cc1ccc(CSc2ccc(-c3cccs3)nn2)cc1 | inconclusive: 39.8 µM [fluorescent, side channel, single point]
34 | Cc1oc(CSCC2CCCO2)cc1C(=O)O (configuration not stated) | inconclusive: 7.08 µM [fluorescent, side channel, single point]
35 | O=C(OCC(=O)c1c[nH]c2ccccc12)c1cc2ccccc2cc1O | inconclusive: 10 µM [quencher, side channel, partial curve]
36 | COC(=O)c1cc(C)nc2c1C(=O)C(=O)C=C2N1CCOCC1 | inconclusive: 7.94 µM [quencher, side channel, partial curve]
37 | CCOC(=O)C1=C(C)NC(C)=C(C(=O)OC)[C@@H]1c1cccc([N+](=O)[O-])c1 | inconclusive: 6.31 µM [quencher, side channel, partial curve, poor fit]
38 | COc1ccc(-c2nc3c(Br)c(N)c(Br)cc3o2)cc1 | inconclusive: 31.6 µM [inhibitor, single point]

Row | SMILES | Potency
39 | COc1cc(NC(=O)C2CC(c3ccccc3O)=NO2)c(OC)cc1Cl (configuration not stated) | inconclusive: 39.8 µM [inhibitor, single point]
40 | CCOC(=O)CSc1nc(N)c(C#N)c(-c2cccs2)c1C#N | inconclusive: 20 µM [inhibitor, single point]
41 | CC1(C)CC(=O)c2sc(NS(=O)(=O)c3ccc([N+](=O)[O-])cc3)nc2C1 | inconclusive: 35.5 µM [quencher, side channel, single point]
42 | COc1cccc(/C=C2\SC(N)=NC2=O)c1OS(=O)(=O)c1ccccc1 | inconclusive: 39.8 µM [fluorescent, side channel, single point]
43 | O=C(O)c1cc(Br)ccc1NN=C1CCCCC1 | inconclusive: 20 µM [quencher, side channel, single point]
44 | COc1ccc(N2CSC3=C(C#N)C(c4cccs4)CC(=O)N3C2)cc1 (configuration not stated) | inconclusive: 39.8 µM [quencher, side channel, single point]
45 | Cc1nc(Nc2cccc(O)c2)c2oc3ccccc3c2n1 | inconclusive: 20 µM [quencher, side channel, single point]
46 | COc1ccc(-c2csc(C3=C(O)CN(CCCN4CCCC4=O)C3=N)n2)cc1OC | inconclusive: 25.1 µM [quencher, side channel, single point]
47 | CCCC(=O)N(Cc1cc(=O)[nH]c2ccccc12)c1ccccc1C | inconclusive: 8.91 µM [inhibitor, partial curve]
48 | C=CCC1=C/C(=C\c2c(N)n3nc(CC(=O)N4CCOCC4)sc3nc2=O)C=C(OC)C1=O | inconclusive: 28.2 µM [quencher, side channel, single point]
49 | CCC(=O)Nc1nnc(SCC(=O)c2ccc3c(c2)Cc2ccccc2-3)s1 | inconclusive: 22.4 µM [inhibitor, single point]
50 | COc1cccc(/C=C2\SC(=S)NC2=O)c1OS(=O)(=O)c1ccc(NC(C)=O)cc1 | inconclusive: 31.6 µM [quencher, side channel, single point]
51 | O=c1oc2cc(O)ccc2c2ccccc12 | inactive
52 | Cc1cccc(Sc2c([N+](=O)[O-])ncn2C)n1 | inconclusive: 0.708 µM [inhibitor, partial curve, poor fit]
53 | OCCC1CN(Cc2cc3c(cc2Cl)OCO3)CCN1Cc1ccccc1 (configuration not stated) | inconclusive: 4.47 µM [fluorescent, side channel, full curve]
54 | CN(C)S(=O)(=O)c1ccc(S(=O)(=O)N(CC(=O)Nc2ccccc2)Cc2ccco2)cc1 | inconclusive: 39.8 µM [fluorescent, side channel, single point]
55 | CCOC(=O)C1CCN(C(=O)CNC(=O)OC(C)(C)C)CC1 | inconclusive: 39.8 µM [inhibitor, single point]
56 | COC(=O)[C@@]1(Cc2ccccc2)[C@H]2c3cc(C(=O)N4CCCC4)n(Cc4c(CO)[nH]cc(C)c4=O)c3C[C@H]2CN1C(=O)c1ccccc1 | inconclusive: 3.55 µM [fluorescent, side channel, full curve, poor fit]
57 | COc1cccc(N2CCN(C(C)C(=O)NC34CC5CC(CC(C5)C3)C4)CC2)c1 (configuration not stated) | inconclusive: 3.16 µM [fluorescent, side channel, partial curve]
